Experimental data taken from PubChem BioAssay AID1466 (National Center for Advancing Translational Sciences (NCATS), 2008).
Among all 200,000 compounds or so, about 10 (0.005%) were called active. This list was built around the results that the source calls inconclusive (neither active nor inactive); the mix of calls is not that of the screen. The call rests on the fitted dose curve; in most records, active means well fitted inhibition curve with a large enough effect; inconclusive means small, poorly fitted or top-dose-only effect, or effect the other way, or another doubt; inactive means no such curve, though single readings can be large or run the other way. Potencies of inconclusive entries are left out as doubtful fits.

molecular target: Lysosomal alpha-glucosidase (Homo sapiens) (UniProt P10253); assay: qHTS Assay for Inhibitors of Human alpha-Glucosidase as a Potential Chaperone Treatment of Pompe Disease; details: purified human GAA, 4-MU-alpha-glucoside fluorescence; activity change, negative = inhibition: at 76.9 µM (top of the series) unless noted;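 on activity change, negative = inhibition: plate controls were uninhibited enzyme wells for no effect and no-enzyme background for full effect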
In short: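 qHTS format, compound range up to 77 uM. Human lysosomal enzyme at 4 nM, 400 uM 4-MU glucoside substrate, pH 5.0, 20 min room temperature; fluorescence after alkaline stop gives activity normalized to controls.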
Potency means the concentration at half of the fitted maximal effect; tags describe the fitted curve by direction and shape.

Compound | Potency | activity change, negative = inhibition
CC1=CC=CC2=NC(=O)CC(C)(C(=O)N(CC(=O)NC(C)C)C3CCCC3)N12 (stereo unspecified) | inconclusive [activator, partial curve] | –
COc1cccc2sc(NC(=O)c3ccc(S(=O)(=O)N4CCOCC4)cc3)nc12 | inconclusive [inhibitor, partial curve, poor fit] | –
C/C(CC(=O)Nc1cccnc1)=N\NC(=O)C(=O)Nc1cccc(C)c1 | inconclusive [inhibitor, single point] | –
CC(C)C(=O)NC(Nc1ccccc1F)C(Cl)(Cl)Cl (stereo unspecified) | – | inconclusive: 15.5% [activator]
COc1ccc(NC(=O)COc2nsnc2N2CCCCC2)cc1 | inconclusive [inhibitor, single point] | –
CSc1nnc(-c2cccn(Cc3ccccc3)c2=O)o1 | inconclusive [activator, partial curve] | –
c1ccc(C2=Nc3ccccc3SC2c2nc3ccccc3[nH]2)cc1 (stereo unspecified) | inconclusive [activator, single point] | –
COc1ccc(S(=O)(=O)/N=C2/NC(=O)/C(=C/c3ccco3)S2)cc1 | inconclusive [inhibitor, single point] | –
O=C(CCN1CCN(c2ccc(F)cc2)CC1)Nc1ccc(F)cc1 | inconclusive [inhibitor, single point] | –
COC(=O)c1ccc(C)c(NC(=O)Cc2ccc([N+](=O)[O-])cc2)c1 | – | inconclusive: 6.47% [activator]
O=C(O)c1ccccc1C(=O)NNc1ccc(Cl)cc1 | – | inactive: 3.2%
Cn1c(-c2ccco2)nc2cc3ccccc3cc21 | inconclusive [activator, partial curve] | –
COc1ccc(C(=O)Oc2ccc3c(C)cc(=O)oc3c2C(C)=O)cc1 | inconclusive [activator, full curve] | –
Clc1ccc(CSc2ccc(-c3ccccn3)nn2)cc1 | inconclusive [inhibitor, partial curve, poor fit] | –
CC(C)CCNC(=O)COc1ccc2c(c1)C(=O)CC(C)(C)O2 | inconclusive [activator, partial curve] | –
O=c1oc2ccccc2n1CSc1nc2ccccc2s1 | inconclusive [inhibitor, single point] | –
C(=N\Nc1ccc2ccccc2n1)/c1ccc2c(c1)OCCO2 | inconclusive [activator, single point] | –
CC/C(=N\NC(=S)NC(C)C)c1ccc(OC(F)F)cc1 | inconclusive [inhibitor, single point] | –
CN(C)CCN(C(=O)CCc1ccccc1)c1nc2c(F)cc(F)cc2s1 | inconclusive [inhibitor, single point] | –
Cc1ccc(C)c(NNC(N)=S)c1 | – | inactive: -5.51%
CCCCc1cc(=O)oc2cc(OCC(=O)N(CC)CC)c(Cl)cc12 | inconclusive [inhibitor, partial curve] | –

Compound | Potency | activity change, negative = inhibition
O=C(Cc1c(O)c2ccccc2[nH]c1=O)NC1CCCCCC1 | inconclusive [inhibitor, single point] | –
CC(C)C(c1nnnn1C1CCCC1)N1CCN(c2ccccc2F)CC1 (stereo unspecified) | – | inconclusive: -17.1% [inhibitor]
Cc1[nH][nH]c(=O)c1C(c1c(C)[nH][nH]c1=O)c1cn(Cc2ccc(Cl)c(Cl)c2)c2ccccc12 | inconclusive [inhibitor, full curve] | –
CCCCC[n+]1ccn(C2=C([O-])c3ccccc3C(=O)/C2=N\S(=O)(=O)c2ccccc2)c1 | – | inactive: 1.17%
CCOc1ccc(C2=NNC(c3cccs3)=Nc3ccc(OCC)cc32)cc1 | inconclusive [inhibitor, full curve, poor fit] | –
N#Cc1c(-c2ccccc2)cc(-c2ccco2)c(C#N)c1N | inconclusive [activator, single point] | –
CN1CCN(Cc2c(O)ccc3cc(-c4ccccn4)c(=O)oc23)CC1 | inconclusive [activator, partial curve] | –
O=C(NCCCCc1ccccc1)C12CN(Cc3ccccc3)CC1C(c1ccc([N+](=O)[O-])cc1)=NO2 (stereo unspecified) | inconclusive [inhibitor, partial curve] | –
Cc1cc(C(=O)N/N=C/c2ccc(O)c(O)c2O)c(C)n1-c1ccccc1 | inconclusive [activator, full curve, poor fit] | –
CCCN(CCC)CCCNC(=O)c1cn(CCOC)c(=O)c2c1c1ccccc1n2C | inconclusive [activator, partial curve] | –
O=C(COC(=O)c1ccc(Cl)nc1)NCc1ccco1 | – | inconclusive: 15.5% [activator]
COCCNC(=O)c1cc(S(=O)(=O)N2CCOCC2)ccc1SCc1cccc(OC)c1OC | inconclusive [inhibitor, single point] | –
NC(=O)c1nc(-c2cccs2)nc2c1[nH]c(=O)n2-c1ccc(F)cc1 | inconclusive [activator, single point] | –
COC(=O)c1ccccc1NC(=O)c1noc2c1CC(C(C)(C)C)CC2 (stereo unspecified) | inconclusive [inhibitor, full curve, poor fit] | –
COc1ccccc1CC(=O)Nc1ccc(Cl)cc1C(=O)O | inconclusive [inhibitor, full curve, poor fit] | –
CCOC(=O)C1=C(CSc2nc(-c3ccccc3)ccc2C#N)OC(N)=C(C#N)C1c1cccnc1 (stereo unspecified) | inconclusive [inhibitor, full curve] | –
Cc1cc2nc(-c3ccc(SCc4ccccn4)nc3)[nH]c2cc1C | inconclusive [activator, single point] | –
CC1(C)OC(C)(C)/C(=C/Nc2ccccc2)C1=O | inconclusive [inhibitor, single point] | –
Nc1ccc2nc(-c3ccccc3)[nH]c2c1 | inconclusive [activator, single point] | –
Cc1cccc(C)c1NC(=O)CN(C)CC(=O)Nc1cc(Cl)ccc1C#N | inconclusive [activator, partial curve] | –
